# In PubChem BioAssay AID1345082 (National Center for Advancing Translational Sciences (NCATS), 2018):
# Screen size: about 94,000 compounds; about 4,000 (4.3%) were called active. The shares of active, inactive and inconclusive entries below differ from those in the screen. Calls follow the shape of the dose curve; as a rule, active = well fitted inhibition curve with a large enough effect; inconclusive = small, poorly fitted or top-dose-only effect; inactive = no such curve, though single readings can be large or run the other way. Potencies of inconclusive entries are doubtful fits and often do not repeat.
# Test: Cytotoxic Profiling in NIH 3T3 Cell Line of Diverse Libraries Using Quantitative High-Throughput Screening; also: nearly all actives have a fitted effect of over 55% in size
# Conditions: NIH 3T3 viability, CellTiter-Glo ATP luminescence, 48-72 h; series mostly up to 96.7 µM
# Method in brief: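 First NIH 3T3 cells are plated at 400 cells/well; next compound is pinned in; then plates incubate 48 or 72 hr at 37 °C; finally CellTiter-Glo is added and luminescence read after 10 min.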
# Potency is read from the fitted curve at half-maximal effect; tags tell the direction and shape of the fitted curve.
row,SMILES,Potency
1,CC(C)(C)CN1CCNc2cc(Nc3ccccc3)ncc2C1,active: 50.1 µM
2,CCc1ccc(CNC(=O)C2(c3ccc(NC(=O)C(C)C)cc3)CCC2)cc1,inactive
3,Cc1cccc(-n2ncc3c2CCCC3NC(=O)c2c(F)ccc(F)c2F)c1C (stereo not given),"inconclusive: 3.55 µM [inhibitor, full curve, poor fit]"
4,O=S(=O)(c1ccsc1-c1nc(-c2cccnn2)no1)N1CCCC1,inactive
5,O=C1CCCN1CCCN1C(=O)[C@H]2CN(Cc3ccccc3OC(F)(F)F)C[C@H]2C1=O,inactive
6,CN(Cc1cc(C[C@@H]2C[C@H](NCc3ncc[nH]3)C2(C)C)no1)c1ccccc1,active: 100 µM
7,O=C(CCc1ccc(O)cc1)N1CCN(Cc2ccccc2)CC(O)C1 (stereo not given),inactive
8,COc1ccccc1C(=O)NC[C@@H]1C=C(C)[C@H](Cc2nc3ccccc3[nH]2)C[C@H]1C(C)C,active: 31.6 µM
9,COc1ccc(CNC(=O)C[C@@H]2O[C@H](Cn3cc(CN(C)Cc4ccccc4)nn3)[C@@H](O)[C@H]2O)cc1,inactive
10,COc1cccc(-c2cccc(CN3CCCC3C(=O)NCC(C)C)c2)c1 (stereo not given),"inconclusive: 50.1 µM [inhibitor, partial curve, poor fit]"
11,CCOC(=O)[C@@H]1CN(C(=O)C(CC)CC)[C@H]2c3ccc(OC)cc3O[C@@H]12,"inconclusive: 50.1 µM [inhibitor, partial curve, poor fit]"
12,O=C(Nc1ccc(Cl)cc1Cl)c1ccc2ccnn2c1,inactive
13,COc1cccc(C(=O)N2CCC3(CC2)CC(OCC2CC2)CCO3)c1 (stereo not given),inactive
14,Cc1oc(C(O)c2ccccc2F)nc1C(=O)Nc1ccc2[nH]c(=O)[nH]c2c1 (stereo not given),"inconclusive: 100 µM [inhibitor, partial curve, poor fit]"
15,Cc1cn2nc(C(=O)NCc3ccccc3F)cc2c(N2CCCC2)n1,"inconclusive: 50.1 µM [inhibitor, single point]"
16,COCCN(CCNC(=O)C1Cn2cccc2C(=O)N1)Cc1ccco1 (stereo not given),inactive
17,COc1ccccc1C(=O)Nc1ccc([C@@H](O)[C@H]2COCC(=O)N2Cc2ccccc2F)cc1,inactive
18,COc1ncc(C(=O)NCc2cccnc2N2CCN(C(C)=O)CC2)cn1,inactive
19,COCCNc1nc(-c2c(C)noc2C)cc2cc(CO)oc12,"inconclusive: 89.1 µM [inhibitor, partial curve]"
20,N#Cc1cccc(-c2ccnc(N[C@H]3CO[C@H]4[C@@H]3OC[C@H]4OC(=O)Nc3ccc(Oc4ccccc4)cc3)n2)c1,"inconclusive: 17.8 µM [inhibitor, partial curve]"
21,O=C(O)Cn1ccc2cc(OCCc3cccc(-c4cccnc4)c3)cnc21,"inconclusive: 79.4 µM [inhibitor, partial curve, poor fit]"
22,CCN(CC)C(=O)C[C@@H]1CCNC[C@@H]1Cc1cc(-c2ccc(OC)cc2)on1,"inconclusive: 126 µM [inhibitor, single point]"

row,SMILES,Potency
1,COc1cccc(CN2Cc3cc(NC(=O)c4ccc([N+](=O)[O-])cc4)ccc3OCC2=O)c1OC,"inconclusive: 39.8 µM [inhibitor, partial curve]"
2,O=C(C1CCCN1C(=O)Cc1ccc(F)cc1)N1CCC(N2CCOCC2=O)CC1 (stereo not given),inactive
3,Cn1cc(CN2CCOC[C@H]2c2ncc(C(C)(C)C)[nH]2)c2ccccc21,"inconclusive: 50.1 µM [inhibitor, partial curve, poor fit]"
4,O=C1CCC2(CCN1CC1CC1)CCN(C(=O)c1ccc3c(c1)OCO3)CC2,inactive
5,O=S(=O)(c1ccc(Br)cc1)N1CCC(n2cnnc2C2CC2)CC1,"inconclusive: 50.1 µM [inhibitor, partial curve, poor fit]"
6,CCn1ccc2oc(C)c(C(=O)NCc3ccccc3Cl)c2c1=O,"inconclusive: 50.1 µM [inhibitor, partial curve, poor fit]"
7,O=C(O)c1cc(-c2ccc(CN3CCCC(CO)C3)o2)ccc1Cl (stereo not given),"inconclusive: 50.1 µM [inhibitor, partial curve, poor fit]"
8,N#CC1CCN(C(=O)CNC(=O)c2cccc(-c3ccc(C(F)(F)F)cc3)c2)CC1,"inconclusive: 39.8 µM [inhibitor, partial curve, poor fit]"
9,O=C(CC1CC1)N1CCC(Oc2cnc3c(ccn3-c3cncnc3)c2)CC1,"inconclusive: 22.4 µM [inhibitor, full curve, poor fit]"
10,CCc1nc(-c2c3n(c(=O)n(CC(=O)Nc4ccccc4OC)c2=O)CCCCC3)no1,inactive
11,Cc1ccc(N2CCN(C(=O)c3cc4n(n3)CC(c3ccc(Cl)cc3)OC4)CC2)c(C)c1 (stereo not given),"inconclusive: 50.1 µM [inhibitor, partial curve, poor fit]"
12,CCc1cc(N2CCOCC(O)(CN3CCCC3)C2)nc(N2CCCC2)n1 (stereo not given),"inconclusive: 50.1 µM [inhibitor, partial curve, poor fit]"
13,COc1ccc(Nc2nccc3c(=O)cc(N4CCOCC4)oc23)cn1,active: 89.1 µM
14,O=C(c1ccc2c(c1)OCO2)N1CCCN(c2ccnc3ccnn23)CC1,"inconclusive: 44.7 µM [inhibitor, partial curve, poor fit]"
15,COc1cccc(-c2cn3cc(C(=O)NCc4ccccn4)nc3s2)c1,"inconclusive: 44.7 µM [inhibitor, partial curve, poor fit]"
16,COc1cccc(C(=O)NC2CCCN(c3cc(-c4ccccc4)[nH]n3)C2)c1OC (stereo not given),"inconclusive: 50.1 µM [inhibitor, partial curve, poor fit]"
17,O=C1CCN(C(=O)c2ccco2)CCCC(c2nc(-c3ccccc3)no2)CCN1 (stereo not given),inactive
18,COc1ccccc1-c1ccc(C(=O)N2CCC(NC(=O)Nc3ccc(Cl)cc3)CC2)cc1,"inconclusive: 12.6 µM [inhibitor, full curve]"
19,O=C1N2CCCC2CN1C1CCN(Cc2ccc(C(F)(F)F)cc2)CC1 (stereo not given),"inconclusive: 50.1 µM [inhibitor, partial curve, poor fit]"
20,O=C(Nc1ccccc1)[C@H]1O[C@H](CCN2CCN(c3ccc(F)cc3)CC2)CC[C@@H]1O,"inconclusive: 100 µM [inhibitor, partial curve, poor fit]"
21,COc1ccc(-c2cnc([C@@H]3COCCN3Cc3csnn3)[nH]2)cc1,inactive
22,COc1cccc(-c2ccc(CN3CCCC(NC(=O)c4ccncc4)C3)cc2)c1 (stereo not given),"inconclusive: 50.1 µM [inhibitor, partial curve, poor fit]"

row,SMILES,Potency
1,COc1ccccc1-c1ccnc(N[C@H]2CO[C@H]3[C@@H]2OC[C@@H]3NC(=O)c2ccccc2)n1,inactive
2,Cc1ccccc1CN1CCc2c(n(Cc3ccccc3)n(-c3ccccc3)c2=O)C1,active: 89.1 µM
3,COCCN(C)C(=O)c1cn2cc(-c3cccc(Cl)c3)n(CC3CC3)c(=O)c2n1,"inconclusive: 50.1 µM [inhibitor, partial curve, poor fit]"
4,CC(C)c1ccc(CC(=O)N2CCCc3ncc(C(=O)N4CCCC[C@@H]4Cc4ccccc4)cc32)cc1,active: 35.5 µM
5,CC1=C[C@@H](CC#N)[C@H](C(C)C)C[C@H]1CC(=O)N(C)Cc1cccnc1,inactive
6,Cc1ccc(C)c(C(=O)N2CCC(Oc3nccnc3N(C)C)C2)c1 (stereo not given),inactive
7,COc1ccccc1CC(=O)N1CCCc2ncc(C(=O)Nc3ccc(OC)c(OC)c3)cc21,inactive
8,COc1cccc(-c2cccc(CN3CCCC3C(=O)N(C)C)c2)c1 (stereo not given),"inconclusive: 79.4 µM [inhibitor, partial curve]"
9,Cc1cn2nc(C(=O)NCCc3cccs3)cc2c(N2CCSCC2)n1,"inconclusive: 50.1 µM [inhibitor, partial curve, poor fit]"
10,COc1ccc(CN2CC3(COCC2=O)CN(c2ccc(C(F)(F)F)cn2)C3)cc1F,"inconclusive: 89.1 µM [inhibitor, partial curve]"
11,Cc1cccc(-c2noc(CCC(=O)N3CCC(C)(c4noc(C)n4)CC3)n2)c1,"inconclusive: 31.6 µM [inhibitor, partial curve]"
12,CCn1ncc(N2CCCC(CC(=O)Nc3ccc(F)c(F)c3)C2)cc1=O (stereo not given),"inconclusive: 50.1 µM [inhibitor, partial curve, poor fit]"
13,CCOC(=O)[C@@H]1CN(C(=O)c2cc3ccccc3s2)[C@H]2c3ccccc3O[C@@H]12,"inconclusive: 70.8 µM [inhibitor, single point]"
14,COc1ccccc1CCC(=O)N1CCC(Cc2nc(-c3ccccc3)no2)CC1,"inconclusive: 50.1 µM [inhibitor, partial curve, poor fit]"
15,Cc1ccc(C2=NC3(CCN(C(=O)COc4ccccc4)CC3)ON2)cc1,inactive
16,Cc1[nH]c2c(F)cccc2c1CC(=O)NC(c1cnn(C)c1)C1CC(O)C1 (stereo not given),inactive
17,O=C(NCC1CC1)c1nc2c(o1)CCN(Cc1cccc(F)c1)CC2,"inconclusive: 39.8 µM [inhibitor, partial curve, poor fit]"
18,CC(C)(C)C1CCC2(CC1)NC(=O)N(CC(=O)NCc1ccc3c(c1)OCO3)C2=O (stereo not given),"inconclusive: 44.7 µM [inhibitor, partial curve, poor fit]"
19,CCCCOC(=O)N1CCC(OC)c2ccccc2N(C)C(=O)C1 (stereo not given),"inconclusive: 79.4 µM [inhibitor, single point]"
20,Cn1cc(C(=O)N2CC(Oc3ccc(-c4nc(-c5ccccc5)no4)cc3)C2)cn1,inactive
21,Cc1oc(C(O)c2cccc(O)c2)nc1C(=O)Nc1ccc(N2CCOCC2)cc1 (stereo not given),"inconclusive: 89.1 µM [inhibitor, partial curve]"
